Assay results as given in the supplement of paper PMC4967469.
pIC50: −log10 of the molar value. The IC50 comes from the fitted curve, where viability falls to half of the control; a limit (>, <) means that the fit lies beyond the doses tested. AUC, from the same fit, is the share of area under the viability curve across the 256-fold dose range; values near 1 show little effect. For some assays here: A top dose marked as inferred was derived from the fitted curves, not read from the paper.

How the values were obtained:
Assay in all cases: Viability of human cancer cell lines after 72 h of drug (GDSC screen)
Trametinib = compound: CC(=O)Nc1cccc(-n2c(=O)n(C3CC3)c(=O)c3c(Nc4ccc(I)cc4F)n(C)c(=O)c(C)c32)c1 [Trametinib]; settings: top dose 1 µM
Procedure: (§1)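 Human cancer cell lines in 384-well plates, medium with 10% serum, drug for 72 h over a 256-fold dose range (nine 2-fold or five 4-fold steps up to the top dose). Adherent lines were fixed and stained with the nucleic acid dye Syto60, suspension lines read with resazurin; signal relative to control wells, capped at 0 and 100%. One two-parameter sigmoid per drug and line, fitted in a mixed model over all curves with the slope shared within a line.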

HG-6-64-1 = compound: CCN1CCN(Cc2ccc(NC(=O)c3ccc(C)c(/C=C/c4cnc5[nH]ccc5c4OC)c3)cc2C(F)(F)F)CC1 [HG-6-64-1]; settings: top dose 5.12 µM; top dose inferred
Procedure: as §1

PF-4708671 = compound: CCc1cncnc1N1CCN(Cc2nc3ccc(C(F)(F)F)cc3[nH]2)CC1 [PF-4708671]; settings: top dose 10 µM; top dose inferred
Procedure: as §1

AV-951 = compound: COc1cc2nccc(Oc3ccc(NC(=O)Nc4cc(C)on4)c(Cl)c3)c2cc1OC [AV-951]; settings: top dose 0.128 µM; top dose inferred
Procedure: as §1

MS-275 = compound: Nc1ccccc1NC(=O)c1ccc(CNC(=O)OCc2cccnc2)cc1 [MS-275]; settings: top dose 5 µM; top dose inferred
Procedure: as §1

KIN001-244 = compound: O=C(NC(COc1ccc2[nH]c(=O)[nH]c2c1)c1ccccc1)c1cccn(Cc2ccc(F)c(F)c2)c1=O [KIN001-244]; settings: top dose 20 µM; top dose inferred
Procedure: as §1

I-BET-762 = compound: CCNC(=O)C[C@@H]1N=C(c2ccc(Cl)cc2)c2cc(OC)ccc2-n2c(C)nnc21 [I-BET-762]; settings: top dose 20 µM; top dose inferred
Procedure: as §1

Cell Line | AUC (Trametinib) | pIC50 (Trametinib) | AUC (HG-6-64-1) | pIC50 (HG-6-64-1) | AUC (PF-4708671) | pIC50 (PF-4708671) | AUC (AV-951) | pIC50 (AV-951) | AUC (MS-275) | pIC50 (MS-275) | AUC (KIN001-244) | pIC50 (KIN001-244) | AUC (I-BET-762) | pIC50 (I-BET-762)
697 (lymphoblastic leukaemia, suspension) | 0.959 | < 6.00 | 0.542 | 6.39 | 0.939 | < 5.00 | 0.984 | < 6.89 | 0.305 | 7.00 | 0.291 | 6.43 |  | 
BC-3 (B-cell lymphoma, suspension) |  |  | 0.911 | < 5.29 |  |  | 0.987 | < 6.89 | 0.656 | 6.10 | 0.829 | 4.97 | 0.953 | < 4.70
CAL-148 (breast, suspension) |  |  | 0.963 | < 5.29 |  |  | 0.985 | < 6.89 | 0.728 | 5.88 | 0.884 | 4.72 | 0.867 | 4.80
CRO-AP2 (B-cell lymphoma, suspension) | 0.975 | < 6.00 |  |  |  |  |  |  | 0.376 | 6.83 |  |  |  | 
EHEB (lymphoid neoplasm, suspension) | 0.854 | < 6.00 | 0.635 | 6.05 | 0.973 | < 5.00 |  |  | 0.656 | 5.99 |  |  |  | 
ES4 (Ewing sarcoma, adherent) | 0.9 | < 6.00 | 0.706 | 5.87 | 0.922 | < 5.00 | 0.981 | < 6.89 | 0.651 | 6.06 | 0.778 | 5.03 |  | 
EW-22 (Ewing sarcoma, adherent) | 0.973 | < 6.00 |  |  | 0.941 | < 5.00 |  |  | 0.922 | < 5.30 |  |  |  | 
GA-10 (Burkitt lymphoma, suspension) | 0.981 | < 6.00 | 0.315 | 6.97 | 0.982 | < 5.00 |  |  | 0.204 | 7.30 |  |  |  | 
GCIY (stomach, adherent) |  |  | 0.738 | 5.77 | 0.869 | < 5.00 | 0.981 | < 6.89 | 0.835 | 5.41 | 0.88 | < 4.70 | 0.969 | < 4.70
H9 (lymphoid neoplasm, suspension) |  |  | 0.856 | 5.52 | 0.96 | < 5.00 | 0.989 | < 6.89 | 0.424 | 6.70 | 0.8 | 5.11 | 0.992 | < 4.70
HCC1599 (breast, suspension) |  |  | 0.87 | < 5.29 |  |  | 0.981 | < 6.89 | 0.586 | 6.26 | 0.711 | 5.26 | 0.814 | 4.89
HCC2998 (large intestine, adherent) |  |  | 0.925 | < 5.29 | 0.962 | < 5.00 | 0.988 | < 6.89 | 0.662 | 6.06 | 0.935 | < 4.70 | 0.968 | < 4.70
